In PMC6919601, “Identification of Plasmodium dipeptidyl aminopeptidase allosteric inhibitors by high throughput screening” (PLoS ONE, 2019):
The whole screen tested about 110,000 compounds, of which about 230 (0.21%) showed an effect of 50% or more. This is one part of the list.
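Note: 30 min substrate incubation versus DMSO and 10 µM JCP410 controls.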

These compounds were tested against DPAP1 (Plasmodium falciparum, UniProt Q8IIJ9) (assay: primary screen, percent inhibition; read by cleavage of a fluorogenic dipeptide substrate; higher = more effect of the substance).
Chain of DPAP1 (Q8IIJ9 whole entry, looked up): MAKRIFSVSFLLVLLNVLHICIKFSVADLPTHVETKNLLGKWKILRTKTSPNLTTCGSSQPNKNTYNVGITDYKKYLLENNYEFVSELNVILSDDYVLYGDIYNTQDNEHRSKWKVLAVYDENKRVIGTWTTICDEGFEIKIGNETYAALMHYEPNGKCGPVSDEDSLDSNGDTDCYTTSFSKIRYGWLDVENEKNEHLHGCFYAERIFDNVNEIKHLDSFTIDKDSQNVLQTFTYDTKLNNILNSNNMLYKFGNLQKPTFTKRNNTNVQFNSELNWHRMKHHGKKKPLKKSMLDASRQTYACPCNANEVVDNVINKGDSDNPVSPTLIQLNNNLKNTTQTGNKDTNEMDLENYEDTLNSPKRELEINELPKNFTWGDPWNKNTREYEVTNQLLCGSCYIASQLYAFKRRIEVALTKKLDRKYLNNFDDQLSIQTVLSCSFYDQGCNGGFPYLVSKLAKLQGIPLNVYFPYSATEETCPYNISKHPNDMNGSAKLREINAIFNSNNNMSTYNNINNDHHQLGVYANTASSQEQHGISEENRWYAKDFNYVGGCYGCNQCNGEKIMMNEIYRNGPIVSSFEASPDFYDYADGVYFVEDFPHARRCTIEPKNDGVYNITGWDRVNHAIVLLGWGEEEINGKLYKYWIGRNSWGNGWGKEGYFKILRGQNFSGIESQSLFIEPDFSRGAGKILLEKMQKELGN
Set-up: species or system P. falciparum D10 trophozoite lysates; single well
With `CN(Cc1ccccc1)C(=O)C1CC(c2ccc(F)cc2)=NO1` (centres unmarked) the “% Inhibition @ 10 uM” value was -2.16%.
With `CCOC(=O)c1c(O)cc2ccccc2c1O` the “% Inhibition @ 10 uM” value was -1.97%.
With `O=C(NCc1ccc2c(c1)OCO2)c1cc(=O)c2cc(Cl)ccc2o1` the “% Inhibition @ 10 uM” value was -3.24%.
With `Cc1scc(CN2CCCCCC2)c1C` the “% Inhibition @ 10 uM” value was 1.77%.
`Cc1nc2ccccc2n1CCc1nc2c3ccccc3nc(NCc3cccnc3)n2n1` was tested, and the “% Inhibition @ 10 uM” value was 9.96%.
For `CCCCNC(=O)c1cc(-c2ccc(F)cc2)on1`, the “% Inhibition @ 10 uM” value was 4.5%.
For `CCC1CCCCN1C(=O)c1cc2cc3cc(OC)ccc3nc2s1` (centres unmarked), the “% Inhibition @ 10 uM” value was 0.128%.
`Cc1ccc(-c2nc(CS(=O)(=O)CC(=O)NC3CC3)c(C)o2)cc1` was tested, and the “% Inhibition @ 10 uM” value was -3.7%.
In the case of `COc1ccc(C2OC(=O)C(C)(C)C(=O)C2(C)C)cc1` (centres unmarked), the “% Inhibition @ 10 uM” value is reported as -1.24%.
For `CC(C)(C)c1[nH]nc2c1C(c1c[nH]nc1-c1ccc(F)cc1)C(C#N)=C(N)O2` (centres unmarked), the “% Inhibition @ 10 uM” value was 4.32%.
`O=C(NCCc1ccccc1)C(=O)Nc1ccc(F)cc1` was tested, and the “% Inhibition @ 10 uM” value was 1.13%.
For `CCOc1ccccc1-c1nc(-c2ccc(C(F)(F)F)cc2)no1`, the “% Inhibition @ 10 uM” value was 1%.
For `SC(COCc1ccccc1)CN1CCN(Cc2ccccc2)CC1` (centres unmarked), the “% Inhibition @ 10 uM” value was -6.02%.
For `NS(=O)(=O)c1ccc(CCNc2ccc3nnc(-c4ccccc4)n3n2)cc1`, the “% Inhibition @ 10 uM” value was 6.41%.
With `CCOc1ccc(NC(=O)c2ccccc2C)cc1` the “% Inhibition @ 10 uM” value was 1.83%.
For `Cc1nnc(NC(=O)CSc2nnc(CNC(=O)c3ccco3)n2-c2cccc(C)c2C)s1`, the “% Inhibition @ 10 uM” value was 3.75%.
In the case of `CC(CCc1ccccc1)NC(=O)Cn1c2c(c(-c3ccccc3Cl)cc1=O)CCC2` (centres unmarked), the “% Inhibition @ 10 uM” value is reported as -0.971%.
For `C=CCn1c(C(C)NC(=O)c2cc(OC)c(OC)c(OC)c2)nc2ccccc21` (centres unmarked), the “% Inhibition @ 10 uM” value was 0.813%.
With `CC(C)C(=O)Nc1c(C(=O)N2CCN(c3ncccn3)CC2)oc2ccccc12` the “% Inhibition @ 10 uM” value was -1.61%.
With `Cc1cc(/C=C2/NC(=O)N(c3cccc(Cl)c3)C2=O)c(C)n1C(C)C` the “% Inhibition @ 10 uM” value was -3.39%.
With `Cc1oc(-c2ccc(C(=O)NC(C)c3ccccc3)cc2)nc1CS(=O)c1ccccc1` (centres unmarked) the “% Inhibition @ 10 uM” value was 0.453%.
For `CC1CCN(Cc2cccn2-c2nnc(N3CCN(Cc4ccccc4)CC3)s2)CC1`, the “% Inhibition @ 10 uM” value was -1.79%.
With `CC(=O)Nc1ccc(C(=O)Nc2ccc(Cl)c(Cl)c2)cc1` the “% Inhibition @ 10 uM” value was -0.197%.
For `CCCc1cc(NCCCN2CCOCC2)n2c(nc3ccccc32)c1C#N`, the “% Inhibition @ 10 uM” value was 2.56%.
For `CN1CCN(C(=O)C2CC(c3c(F)cccc3Cl)=NO2)CC1` (centres unmarked), the “% Inhibition @ 10 uM” value was 1.91%.
With `NC(=O)CN1C(=O)c2cccc3cccc1c23` the “% Inhibition @ 10 uM” value was -4.48%.
In the case of `CCC(NC(=O)c1ccccc1NC(=O)c1ccc(OC)cc1)C(=O)Nc1cccc2ccccc12` (centres unmarked), the “% Inhibition @ 10 uM” value is reported as 5.6%.
`COc1ccccc1C(=O)N1CCN(c2cccc(Cl)c2)CC1` was tested, and the “% Inhibition @ 10 uM” value was 3.48%.
For `Cc1noc(C)c1S(=O)(=O)N1CCC(C(=O)N2CC(=O)N(CCc3ccccc3)C(=O)C2)CC1`, the “% Inhibition @ 10 uM” value was 0.402%.
In the case of `O=C(O)C1CC=CCC1C(=O)OCC(Cl)=C(Cl)Cl` (centres unmarked), the “% Inhibition @ 10 uM” value is reported as -0.216%.
For `O=C1c2ccccc2C(=O)c2cc(S(=O)(=O)N3CCCCCC3)ccc21`, the “% Inhibition @ 10 uM” value was -0.261%.
`O=C(CSc1ccccc1)NCCSCc1ccc(Cl)cc1` was tested, and the “% Inhibition @ 10 uM” value was 4.01%.
With `CSc1nc(-c2ccco2)nn1C(=O)c1ccccc1` the “% Inhibition @ 10 uM” value was 0.778%.
`CC(=O)/C(C#N)=C\Nc1ccc2c(c1)ncn2-c1ccc(Cl)cc1` was tested, and the “% Inhibition @ 10 uM” value was 3.05%.
`O=P(O)(Cc1ccccc1)Cc1ccccc1` was tested, and the “% Inhibition @ 10 uM” value was -3.48%.
With `COc1cccc(CNCc2ccc(C(F)(F)F)cc2)c1OC` the “% Inhibition @ 10 uM” value was -7.08%.
`COC(=O)c1noc(-c2ccc(OC)cc2)n1` was tested, and the “% Inhibition @ 10 uM” value was 5.12%.
In the case of `CC1Cc2nc(SCC(=O)Nc3nc4ccccc4s3)n(CCc3ccccc3)c(=O)c2S1` (centres unmarked), the “% Inhibition @ 10 uM” value is reported as -1.62%.
`NC(=O)c1c(NC(=O)COc2ccc(Br)cc2)sc2c1CCCC2` was tested, and the “% Inhibition @ 10 uM” value was 3.8%.
`Cc1[nH]c2ccccc2c1C(O)c1ccccn1` (centres unmarked) was tested, and the “% Inhibition @ 10 uM” value was -1.75%.
`COC(=O)c1nnn(-c2cc(OC)cc(OC)c2)c1C(=O)OC` was tested, and the “% Inhibition @ 10 uM” value was -0.0521%.
`CCN(CC)S(=O)(=O)c1ccc(NC(=O)Cc2ccccc2)cc1` was tested, and the “% Inhibition @ 10 uM” value was -4.14%.
In the case of `COc1cc2c(cc1/C=C1/S/C(=N\c3ccc(N4CCOCC4)cc3)N(C)C1=O)OCO2`, the “% Inhibition @ 10 uM” value is reported as -0.318%.
For `OCCN(CCO)Cc1c(F)cccc1F`, the “% Inhibition @ 10 uM” value was 0.273%.
For `COc1cccc(OC)c1C(=O)Nc1cc(Cl)ccc1Cl`, the “% Inhibition @ 10 uM” value was -1.98%.
For `CCCCn1c(SCc2ccc(C)cc2)nc2c1c(=O)[nH]c(=O)n2C`, the “% Inhibition @ 10 uM” value was 5.66%.
For `Cc1nn(C(C)C(=O)NC2CCCc3ccccc32)c(=O)c2cc3sccc3n12` (centres unmarked), the “% Inhibition @ 10 uM” value was 1.8%.
In the case of `CCC(=O)c1ccc(N2CCN(C)CC2)c(F)c1`, the “% Inhibition @ 10 uM” value is reported as 0.13%.
For `Cc1nn(Cc2ccc(C(=O)NCc3cccnc3)o2)c(C)c1Cl`, the “% Inhibition @ 10 uM” value was -1.37%.
`COc1ccc(OCC(=O)Nc2ccc(S(=O)(=O)Nc3ccc(Cl)cc3)cc2)cc1` was tested, and the “% Inhibition @ 10 uM” value was 5.39%.
With `COc1ccc(-c2coc3c(C)c4oc(=O)cc(C)c4cc23)cc1` the “% Inhibition @ 10 uM” value was 3.81%.
With `Cc1nnc(N2CCCC(C(=O)NCCCN3CCOCC3)C2)c2nn(-c3ccccc3)c(C)c12` (centres unmarked) the “% Inhibition @ 10 uM” value was 1.4%.
`O=C(CCCOc1ccc(Cl)cc1Cl)Nc1ccncc1` was tested, and the “% Inhibition @ 10 uM” value was -4.68%.
For `N=Cc1c(C(F)(F)F)nn(-c2nc3ccccc3s2)c1O`, the “% Inhibition @ 10 uM” value was 2.38%.
With `CC1=C(C(=O)Nc2ccc(Br)cc2)C(c2cccs2)NC(=O)N1` (centres unmarked) the “% Inhibition @ 10 uM” value was -3.69%.
With `N#CCNC(=O)[C@H](Cc1ccccc1Cl)NC(=O)OCc1ccccc1` the “% Inhibition @ 10 uM” value was -0.207%.
With `O=C(CSc1c2c(nc3ccc(Cl)cc13)CCCC2)NCCCN1CCOCC1` the “% Inhibition @ 10 uM” value was -8.9%.
For `CCCNC(=O)N1CCCC(C(N)=O)C1` (centres unmarked), the “% Inhibition @ 10 uM” value was -0.403%.
With `Cc1cc(C)n(-c2ncnc3sc(C)c(C)c23)n1` the “% Inhibition @ 10 uM” value was -2.87%.
With `CC(C)(C)C1(C)OC(=O)C(=Cc2ccccc2Cl)C(=O)O1` (centres unmarked) the “% Inhibition @ 10 uM” value was -2.37%.
With `O=C(O)c1c(CNCc2ccccn2)c2ccccc2n1Cc1ccccc1` the “% Inhibition @ 10 uM” value was 6.41%.
In the case of `O=C(Nc1nccs1)c1ccc(-c2ccc(Cl)cc2Cl)o1`, the “% Inhibition @ 10 uM” value is reported as 1.05%.
In the case of `CCOc1ccc(C2C(C(=O)c3ccc(OC(C)C)cc3)=C(O)C(=O)N2c2ccccn2)cc1` (centres unmarked), the “% Inhibition @ 10 uM” value is reported as -7.96%.
With `O=c1oc2cc(OCc3ccc(F)cc3)c(Cl)cc2c2c1CCC2` the “% Inhibition @ 10 uM” value was -5.62%.
`CC(=O)N(C)c1ccc(NS(=O)(=O)c2cc(Cl)ccc2Cl)cc1` was tested, and the “% Inhibition @ 10 uM” value was -6.16%.
